Measurements reported in PubChem BioAssay AID1745853 (National Center for Advancing Translational Sciences (NCATS), 2022).
Several values for one entry are separate records, joined by “and”; a condition that tells them apart may be missing. Equal entries are not always repeated. Some of the results follow. Further columns of the screen follow, without active or inactive calls.

Columns and labels:
Test in all cases: Primary Screen for Target Class Profiling of Small Molecule Inhibitors of Methyltransferases
[1] = biological target: Glycine N-methyltransferase (Homo sapiens) (UniProt Q14749); conditions: purified enzyme, MTase-Glo SAH luminescence; measured here: GNMT inhibition; at 40 µM; stronger effect = lower value
Procedure, shortened: (§1)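 Each enzyme was assayed with SAM and its substrate. SAH formation detected by MTase-Glo luminescence; single-point 40 uM screen[…].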

[2] = biological target: Guanidinoacetate N-methyltransferase (Homo sapiens) (UniProt Q14353); conditions: purified enzyme, MTase-Glo SAH luminescence; measured here: GAMT inhibition; at 40 µM; stronger effect = lower value
Procedure, shortened: as §1

[3] = biological target: Histamine N-methyltransferase (Homo sapiens) (UniProt P50135); conditions: purified enzyme, MTase-Glo SAH luminescence; measured here: HNMT inhibition; at 40 µM; stronger effect = lower value
Procedure, shortened: as §1

[4] = biological target: Nicotinamide N-methyltransferase (Homo sapiens) (UniProt P40261); conditions: purified enzyme, MTase-Glo SAH luminescence; measured here: NNMT inhibition; at 40 µM; stronger effect = lower value
Procedure, shortened: as §1

[5] = biological target: Phenylethanolamine N-methyltransferase (Homo sapiens) (UniProt P11086); conditions: purified enzyme, MTase-Glo SAH luminescence; measured here: PNMT inhibition; at 40 µM; stronger effect = lower value
Procedure, shortened: as §1
% is set by controls: 0 for no effect and ±100 for the full control effect.

SMILES | activity change, negative = inhibition [1] | activity change, negative = inhibition [2] | activity change, negative = inhibition [3] | activity change, negative = inhibition [4] | activity change, negative = inhibition [5]
CCc1ccccc1NC(=O)Cn1nc2n(CC(C)C)c(=O)c3ccc(C(=O)NC(C)C)cc3n2c1=O | 5.29% | 0% | 5.61% | 1.66% | 0.335%
Cc1ccc(O[C@H]2COCC[C@H]2NC(=O)c2ccc(-c3ccn[nH]3)cc2)cn1 | -2.36% | 3.75% | 2.25% | 0.434% | 2.73%
C[C@]1(OC(=O)/C=C/c2ccccc2)C[C@H](O)[C@]2(O)C=CO[C@@H](O[C@@H]3O[C@H](CO)[C@@H](O)[C@H](O)[C@H]3O)C12 (stereo not given in full) | 0% | 8.39% | 9.21% | -3.75% | 3.89%
COCC(=O)Nc1ccc([C@H]2OCC(=O)N[C@@H]2CO)cc1 | -3.41% | 1.74% | 1.08% | 0.81% | 0.313%
CCCn1c(=O)c2cc(Cl)ccc2n2c(SCC(=O)Nc3ccccc3CC)nnc12 | -7.89% | -0.935% | 5.62% | -7.11% | -1.18%
NCCS(=O)O | 5.38% | 8.36% | 9.79% | -6.05% | 1.19%
Cc1cc(C)cc(NC(=O)CSc2nnc3n(Cc4ccc(F)cc4)c(=O)c4ccccc4n23)c1 | 4.45% | 0% | 5.02% | 5.35% | 5.14%
CCS(=O)(=O)Nc1ccc(C2(C(=O)NCc3cccc(Cl)c3)CCC2)cc1 | -8.79% | -13.2% | -7.17% | -20.6% | -18.8%
C=CCCCC(=O)Nc1ccc(NC(=O)C(C)(C)C)c(OC)c1 | -3.33% | 1.66% | -2.01% | -2.07% | -5.68%
CC(C(=O)O)c1ccc(/C=C2\CCCCC2=O)cc1 (stereo not given) | -6.98% | 1.62% | 3.55% | -10.8% | 0.346%
Cn1c(=O)n(C)c2cc(S(=O)(=O)N3CCN(c4ccccc4F)CC3)ccc21 | -4.76% | -1.99% | -10.8% | -15% | -10.8%
CC1(C)CCC[C@@]2(C)[C@H]1[C@H](O)C=C1COC(=O)[C@@]12O | 0% | 9.75% | 9% | -4.14% | 8.73%
CN(C)c1cccc(-c2nc(-c3nnn4c3COC(c3ccccc3Cl)C4)no2)c1 (stereo not given) | -0.038% | 0.147% | 0.968% | -4.41% | 14.5%
CCCCN1C(=O)c2cc(C(=O)Nc3ccc(F)cc3Cl)nn2CC1(C)C(=O)NC1CCCC1 (stereo not given) | 0.684% | 0% | -16.3% | -4.46% | -2.09%
O=C(NCCc1ccccc1)c1cc(-c2ccc(F)cc2)nc2n[nH]c(-c3ccccc3)c12 | -3.9% | 0.313% | -10.4% | -6.75% | -7.99%
O=C(c1ccc2c(=O)nc3c(-c4ccc(Cl)cc4)n[nH]n3c2c1)N1CCN(c2ccccc2)CC1 | -4.44% | 4.97% | 4.01% | 7.55% | 3.48%
CC1(C(=O)NC2CCCCCC2)Cn2c(cc3occc32)C(=O)N1CCc1ccc(Cl)cc1 (stereo not given) | -0.086% | 3.24% | 6.91% | -0.336% | 1.84%
COc1ccc(C(=O)Cn2nc3n(CCC(C)C)c(=O)c4ccc(C(=O)NCC(C)C)cc4n3c2=O)cc1 | 3.38% | 0% | 5.9% | -1.02% | 5.74%
OCC1O[C@H]([S-])[C@H](O)[C@@H](O)[C@@H]1O.[Au+] (stereo not given in full) | -25.2% | -12% | -16.6% | -13.9% | 0.608%

SMILES | activity change, negative = inhibition [1] | activity change, negative = inhibition [2] | activity change, negative = inhibition [3] | activity change, negative = inhibition [4] | activity change, negative = inhibition [5]
COc1ccc([C@H]2C[C@@H](O)[C@@H](O)[C@@H]2NCc2ccc(OC)nc2)cc1 | 0.944% | -9.28% | -3.88% | -10.8% | -10%
COCc1cccc(C(=O)N2CC[C@@]3(O)CCN(S(C)(=O)=O)C[C@H]3C2)n1 | -3.94% | -0.052% | 0.087% | -4.55% | 8.75%
O=C1CCN(C(=O)Cc2cccc(F)c2)CCCCCCN1 | -0.379% | -0.666% | -1.2% | 1.46% | -0.736%
CC(C)CC(=O)c1c(O)cc2c(c1O)C(CC(C)C)C1=C(O2)C(C)(C)C(=O)C(C)(C)C1=O (stereo not given) | -3.85% | -9.84% | 1.33% | -22.8% | -1.55%
O=C1CN(C(=O)c2cccc(C(F)(F)F)c2)CC(OCc2cccnc2)CN1CC1CCOCC1 (stereo not given) | -3.58% | -10.9% | -5.64% | -17.1% | -11.1%
CC1CCN(S(=O)(=O)c2cc3[nH]c(=O)[nH]c3cc2Cl)CC1 | -6.64% | 3.61% | 1% | -12.8% | -12.9%
CCCN1C(=O)c2c(C(=O)NCc3cc(OC)ccc3OC)ncn2CC1(C)C(=O)NCc1ccccc1 (stereo not given) | -5.74% | 4.2% | 3.13% | 6.5% | -3.9%
CC(C)NC(=O)c1ccc2c(=O)n(C(C)C)c3nn(CC(=O)NCc4ccc(Cl)cc4)c(=O)n3c2c1 | 9.05% | 1.38% | 6.15% | 1.92% | 8.13%
CC1c2cccn2CCN1C(=O)Nc1ccccc1Cl (stereo not given) | -9.39% | -1.55% | -14.2% | -23.5% | -9.86%
CCCSCCCN1C(=O)c2nc3ccccc3n2CC1(C)C(=O)NC1CCCC(C)C1C (stereo not given) | 3.1% | 0% | 5.11% | -3.51% | -1.7%
CC(C)NC[C@H](O)c1ccc(O)c(O)c1 | -27.4% and -14.5% | -3.67% and 6.22% | -7.8% and -0.122% | -14.1% and -8.08% | -8.89% and -3.31%
CC(C)Oc1ccc(CN2C(=O)c3oc4ccccc4c3OCC2(C)C(=O)NC2CCCC2)cc1 (stereo not given) | -7.52% | 4.6% | 1.2% | 0.038% | 1.53%
CCC(=O)N(C1CCOCC1)C1CCN(Cc2ccc[nH]2)CC1 | -5.61% | 1.29% | 1.18% | -4.53% | -0.09%
CCc1cc2c(cc3n2CC(C)(C(=O)NC2CCCCCC2)N(Cc2ccccc2)C3=O)s1 (stereo not given) | 2.27% | 0% | 8.99% | -1.35% | 1.6%
CC(=O)OC1CC2C3(C)CCC(OC(=O)CC(=O)O)C(C)(C)C3CCC2(C)C2(C)CCC(C3(C)CCC(=O)O3)C12 (stereo not given) | 4.93% | 2.52% | 12.7% | -13.1% | 3.31%
Cc1ccc(C(=O)Cn2nc3n(Cc4ccccc4)c(=O)c4ccc(C(=O)NC(C)C)cc4n3c2=O)cc1 | 5.71% | 1.66% | 6.81% | 2.02% | 6.12%
COC(=O)C1=CO[C@@H](O[C@@H]2O[C@H](CO)[C@@H](O)[C@H](O)[C@H]2O)[C@H]2[C@@H]1C=C[C@]21C=C([C@H](C)OC(=O)/C=C/c2ccc(O)cc2)C(=O)O1 | -5.76% | -9.48% | 2.71% | -20.4% | 0%
O=C(NCc1cccnc1)C1CN(S(=O)(=O)C2CC2)CC12CCCCC2 (stereo not given) | -1.84% | -0.014% | 0.702% | 1.13% | -2.13%
O=C(NC1CCCC1)c1ccc2c(c1)n(Cc1cccc(F)c1)c(=O)c1ccnn12 | -1.19% | -2.37% | -1.27% | -3.21% | -0.015%

SMILES | activity change, negative = inhibition [1] | activity change, negative = inhibition [2] | activity change, negative = inhibition [3] | activity change, negative = inhibition [4] | activity change, negative = inhibition [5]
CCCSCCCN1C(=O)c2nc3ccccc3n2CC1(C)C(=O)NC1CCC(C)CC1 (stereo not given) | -4.45% | 1.57% | 0.508% | -2.93% | -3.85%
CCOc1ccccc1CN1C(=O)c2nc3ccccc3n2CC1(C)C(=O)NC1CCCCC1 (stereo not given) | -0.577% | 4.2% | -5.04% | -13.8% | -4.54%
O=C(CCn1ccc2cc(S(=O)(=O)N3CCCCC3)ccc21)NCCCc1ccccc1 | 5.25% | 0% | 8.67% | 5.24% | 5.48%
COc1ccc(CNC(=O)CCc2nnc3n(CCc4ccccc4)c(=O)c4ccccc4n23)cc1 | -8.66% | 4.61% | 3.75% | 6.01% | -1.49%
O=C(c1n[nH]c2c1CCCC2)N1CCc2nc3cc[nH]n3c(=O)c2C1 | -18.1% | -11.8% | -8.82% | -14% | -11.7%
Cc1ccc(CNC(=O)C2(C)Cn3cnc(C(=O)Nc4ccc(Cl)cc4F)c3C(=O)N2C2CC2)cc1 (stereo not given) | -3.54% | 0% | 8.38% | -0.321% | 2.7%
O=c1c2ccccc2n2c(-c3cccc(Br)c3)nnc2n1Cc1ccc(F)cc1 | 3.25% | 1.32% | 7.62% | 1.55% | 3.18%
CC1CCN([C@@H]2[C@H](O)[C@H](CO)O[C@@H]2CN(Cc2ccc(F)cc2)Cc2ccc(F)cc2)CC1 | 3.51% | 3.6% | -0.053% | 4.05% | 2.12%
CCOc1ccc(CCN2C(=O)c3cc(C(=O)OC)nn3CC2(C)C(=O)NC2CCC(C)CC2)cc1 (stereo not given) | 1.4% | 0% | 4.4% | -1.41% | 2.53%
COC(=O)C1=CO[C@@H](O[C@@H]2O[C@H](CO)[C@@H](O)[C@H](O)[C@H]2O)[C@@H]2C(COC(C)=O)=C[C@H](O)[C@H]12 | 1.6% | 2.29% | 5.03% | -8.66% | 3.38%
CCCC1c2ccc(C)n2CCN1C(=O)Nc1ccccc1CC (stereo not given) | -7.61% | 3.25% | -13% | -2.24% | -6.27%
Cc1cccc(CNC(=O)c2cc3n(n2)CC(C)(C(=O)NC2CCCCC2)N(C)C3=O)c1 (stereo not given) | 5.98% | 0% | 6.29% | 9.6% | 2.74%
COc1ccccc1CNC(=O)C1(C)Cn2nc(-c3ccccc3)cc2C(=O)N1Cc1ccccc1OC (stereo not given) | -3.02% | 4.18% | -0.606% | -8.43% | -2.89%
Cc1ccc(Cn2c(=O)c3ccccc3n3c(CCC(=O)NCc4ccccc4)nnc23)cc1 | -0.225% | 0% | 7.78% | 2.08% | 0.739%
COCCCN1C(=O)c2nc3ccccc3n2CC1(C)C(=O)NC1CCC(C)CC1 (stereo not given) | -7.17% | -3.05% | 1.44% | -7.22% | -9.32%
Cn1c(C(=O)Nc2ccc3c(c2)OCO3)cc2c1CCN(Cc1cccc(F)c1)C2 | -12.9% | -9.62% | -28.1% | -26.2% | -35.5%
Cn1c(=O)c2ccc(C(=O)NC3CCCC3)cc2n2c(=O)n(CC(=O)NCc3ccccc3)nc12 | 3.54% | 0.254% | 4.03% | 5.15% | 2.99%
CC(=O)C1=CCC2C3CCC4CC(O[C@@H]5O[C@H](CO)[C@@H](O[C@@H]6O[C@@H](C)[C@H](O)[C@@H](O)[C@H]6O)[C@H](O)[C@H]5O[C@@H]5O[C@H](CO)[C@@H](O)[C@H](O)[C@H]5O)CCC4(C)C3CCC12C (stereo not given in full) | 6.71% | 5.12% | 1.03% | -7.63% | 8.32%
CC(C)CNC(=O)N1CCn2cccc2C1C (stereo not given) | 5.38% | 2.6% | 10.5% | 8.81% | 8.95%
